Reference: the supplement of paper PMC11417369
± gives the standard deviation of the averaged measurements. Some of the results follow.

Test system: PfAP2-I AP2 domain 3 (GST-tagged)
Assay: gcPBM binding intensity (ln(normalized median fluorescence intensity)); higher = stronger DNA binding
Method in brief: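 Plasmodium falciparum DNA-binding domains carrying a GST tag were expressed in E. coli and applied for 1 h, at about 25 μg on average, to an Agilent 4 × 180k array. The array held primer-extended double-stranded 36-bp intergenic genomic probes together with negative controls, and binding took place in 1× PBS with 1% milk, 0.2 mg/ml BSA, 0.5% salmon testes DNA and 0.03% Triton X-100. An Alexa488 anti-GST antibody detected bound protein, and the array was scanned at 488 nm. Binding intensity is taken as the highest Masliner-normalised natural-log median intensity across replicate spots of either probe orientation.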

| Sequence | gcPBM binding intensity (ln) |
| --- | --- |
| AAAATTCATAAATACACACACGCACATATATATATA [CACACA_site4227] | 9.36 ± 0.099 |
| CAAAAATAAAAGAAATGTACAAAAAATAATAAAAAA [XGTACX_site6597] | 7.84 ± 0.76 |
| AAATATATATTCATGTGTACACACAAAAAAAAATAA [XGTACX_site4552] | 8.17 ± 0.45 |
| AAAAATTTTCAAGTGTGTACATATTTTCATTTAACA [XGTACX_site6186] | 7.96 ± 0.42 |
| ATGTATATATTTTTATGTACATATTTTTAATTTATA [XGTACX_site2982] | 7.47 ± 0.18 |
| CATACATATACTTTGTGTACATATATATATTATATA [XGTACX_site97] | 7.88 ± 0.16 |
| TAATAAAAAATTAAAAAAAATAAAAATAAAAATAAA [GTGCAC_negctrl_site78] | 7.73 ± 0.58 |
| TTTTTATTTAGCTAAGCATGCTAACGATGACACTTC [TGCATGCA_site79] | 7.65 ± 0.71 |
| TTTATACTTTTAAATTGTACTATAAAAAGGAATACA [XGTACX_site2537] | 7.71 ± 0.42 |
| AAGAAAAAGTATCCTCTATCTTTATATAAACTATTA [TGCATGCA_negctrl_site2] | 7.58 ± 0.57 |
| TGCCATCATATCATAGGTACACAAACATATAAAGAA [XGTACX_site4137] | 8.22 ± 0.82 |
| AAATGTTCAGAAACTATTATAAAAATGGAATAATAT [CACACA_negctrl_site1544] | 7.67 ± 0.68 |
| GTATTATATTTTAATACACACCCAAATATTAAAAAG [CACACA_site8968] | 8.01 ± 0.5 |
| TTATGCTCAAAGAAAAGTACATAAATAAAAGTATAT [XGTACX_site7365] | 8.13 ± 0.25 |
| TTAACAAATAAATGCACACATATATATAAATAATAT [CACACA_site28] | 9.52 ± 0.35 |
| CTTAATATGGATATTGCATGTAGAACATGAACAATA [TGCATGCA_site760] | 7.58 ± 0.65 |
| TAAATATTATATTTATGTACATAAGTTTTTTTTAAT [XGTACX_site3559] | 7.59 ± 0.2 |
| TATATGTAGATTAAACGTACTTACAACGGAATTATC [XGTACX_site3036] | 7.85 ± 0.61 |
| AAATTACTGTAAAAAAGTACAGAAGTTCTTATTTTT [XGTACX_site7416] | 7.57 ± 0.43 |

| Sequence | gcPBM binding intensity (ln) |
| --- | --- |
| GTTCATATAATAAAATGTACATAATATATTATATAT [XGTACX_site7623] | 7.76 ± 0.45 |
| TATATCTATTTCAAATGTACTTATATGATTCTTATA [XGTACX_site6277] | 7.67 ± 0.2 |
| AGCTACAAAAATTAATATATATATGTATAGTTATAC [TGCATGCA_negctrl_site531] | 7.38 ± 0.59 |
| AGTTTAATTTTGTATACACACATTTGAATTATTAAT [CACACA_site7625] | 7.92 ± 0.71 |
| ATATATTTATATTTTTGTACCCAAAATTGTTTGATG [XGTACX_site3581] | 7.72 ± 0.49 |
| TAAAAGTTGAAGCACACACACAAAAGAAATACAATA [CACACA_site6649] | 8.28 ± 0.28 |
| GTATACAACATATGAACACACAAAATATTTTTTTTT [CACACA_site2928] | 7.74 ± 0.42 |
| TATCTCCACAAAAGATGTACTCATATTAATTTATAA [XGTACX_site3535] | 7.75 ± 0.26 |
| TTAAAGCTTGCATATACACACATACATAAATTCATA [CACACA_site7208] | 7.83 ± 0.61 |
| TTTTTTTTTTTTTATTGTACATACTTTTAAATATAT [XGTACX_site4303] | 8.16 ± 0.6 |
| ATAAATAAAGGACACACACACACACTAATAAAAAAA [CACACA_site8840] | 8.11 ± 0.27 |
| TATATAATATATTTATGTACTCACAATGGGGTCTAC [XGTACX_site2691] | 8 ± 0.31 |
| TTTGTTATATTTAATACACACATATTATAAACACAT [CACACA_site7703] | 8.07 ± 0.34 |
| TATGAAAAGTAAAGTACACACAGGAAAAAAAAAAAA [CACACA_site1749] | 8.16 ± 0.83 |
| ATATATATATATATATGTACATAATGCATATAATAT [XGTACX_site6142] | 9.25 ± 0.47 |
| GAAGGAAAAGATACGATAAAATAAGATATTAATTTA [GTGCAC_negctrl_site419] | 7.28 ± 0.73 |
| TTAATACTTTTTTCTGTACACACTTGATTTACTATA [CACACA_site2799] | 8.09 ± 0.57 |
| TAAACACCCATACATACACACATACATACACCCATA [CACACA_site5125] | 8.08 ± 0.2 |
| TTCTTCAATATATTCTTACACACTTAAAAAAAAAAA [CACACA_site228] | 7.86 ± 0.54 |

| Sequence | gcPBM binding intensity (ln) |
| --- | --- |
| AAGCTTAAAAATGGGGGTACGTCATAGGGATTCAAC [XGTACX_site8080] | 8.48 ± 0.33 |
| TTTGACACAATATTTTGTACGAAACTATTAATTCAA [XGTACX_site4853] | 7.47 ± 0.58 |
| AATATATAAACATATACACACAAAAACATATATATA [CACACA_site4855] | 7.98 ± 0.75 |
| ATGTTTTCAAAAATAAAACATATAAATAAATAAATA [TGCATGCA_negctrl_site226] | 7.75 ± 0.7 |
| AATGTACACGCACCCACACACAAACAAATATAAATA [CACACA_site7319] | 9.4 ± 0.43 |
| TTACGAATGAATATATGTACATATATATATATATAT [XGTACX_site3790] | 9.46 ± 0.38 |
| TTGCTTTTCATTTATTGTACATACCCAGTAGGATAA [XGTACX_site3939] | 8.17 ± 0.41 |
| GACATAGTATTAAGTTGTACATATATAAAAATAAAT [XGTACX_site1583] | 7.98 ± 0.13 |
| TTATAATACCTACAAAGTACAAACTTAAATATGAAC [XGTACX_site5684] | 7.68 ± 0.39 |
| CAACAACAAATGAGAAGTACATAAATATTAACAATA [XGTACX_site4625] | 7.68 ± 0.4 |
| ATATGTTTTAAGTGTACACATATAATGTATTTTGTT [CACACA_site4929] | 8.11 ± 0.45 |
| AACCTATCTATAGGAACAATATATATATATATAATT [CACACA_negctrl_site1707] | 7.51 ± 0.63 |
| TATTATGCTATTTAATGTACGGAATTTATATATATA [XGTACX_site564] | 8.49 ± 0.56 |
| TTGCTCATTGAAATTATACACACCAAATATATAAAT [CACACA_site2482] | 7.88 ± 0.4 |
| TAAAAAAAAACATGATGTACATAAAATTTTTTACTT [XGTACX_site7056] | 7.54 ± 0.53 |
| AAAATATATAAACGCACATATATTTATGTATATATA [CACACA_negctrl_site163] | 8.42 ± 0.23 |
| AAAAGGGAAAAAATTAAAATTATATATATATATATG [CACACA_negctrl_site137] | 7.62 ± 0.71 |
| TTATTAGAGATGTTAAGATATAGGGATAATTTCGAT [XGTACX_negctrl_site395] | 7.69 ± 0.69 |
